The campaign covered roughly 390,000 compounds. About 2,200 (0.56%) were called active. The inconclusive results got no clear call from the source; some entries with a clear call stand among them for comparison. Calls follow the shape of the dose curve; as a rule, active = well fitted inhibition curve with a large enough effect; inconclusive = small, poorly fitted or top-dose-only effect; inactive = no such curve, though single readings can be large or run the other way. Potencies of inconclusive entries are doubtful fits and often do not repeat.
Target: Chromobox protein homolog 1 (Homo sapiens) (UniProt P83916)
Assay: HTS for Inhibitors of HP1-beta Chromodomain Interactions with Methylated Histone Tails; also: nearly all actives have a fitted effect of over 70% in size
Settings: AlphaScreen HP1-beta / biotin-H3K9me3 peptide binding; series mostly up to 114 µM; activity change, negative = inhibition: at the top concentration
In short: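 HP1-beta protein (50 nM final) preincubated 30 min at room temperature with biotinylated H3(1-18)K9me3 peptide (50 nM) in PBS pH 7.4, 0.01% Tween-20, then compound added for 30 min. AlphaScreen streptavidin donor/nickel chelate acceptor beads (10 ug/mL final), 30 min dark, luminescence read.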
Potency is read from the fitted curve at half-maximal effect; tags tell the direction and shape of the fitted curve.

Chain of UniProt P83916 (P83916 whole entry, looked up): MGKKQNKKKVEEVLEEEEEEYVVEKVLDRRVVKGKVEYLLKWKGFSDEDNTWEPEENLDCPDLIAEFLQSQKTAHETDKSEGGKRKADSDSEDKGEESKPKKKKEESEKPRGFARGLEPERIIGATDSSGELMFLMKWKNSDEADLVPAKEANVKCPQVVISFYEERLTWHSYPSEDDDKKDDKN

SMILES | Potency | activity change, negative = inhibition
COc1ccc(P(=O)(COc2ccc([N+](=O)[O-])cc2)c2ccc(OC)cc2)cc1 | inconclusive: 25.1 µM [inhibitor, single point] | 
COc1ccc(CNC(=O)C(c2ccccc2F)N(C(=O)c2csnn2)C2CC2)cc1 (stereo not given) | inconclusive: 89.1 µM [inhibitor, single point] | 
O=C(CNCCC1=CCCCC1)Nc1ccccc1N1CCCCC1 | inconclusive: 44.7 µM [inhibitor, partial curve] | 
COc1ccccc1C(=O)N1CCN(C2CCN(Cc3ccccc3)CC2)CC1 | inconclusive: 15.8 µM [inhibitor, full curve, poor fit] | 
COc1ccc(-c2nc3c(c(SCC(=O)Nc4ccc(C(=O)O)cc4)n2)Cc2ccccc2O3)cc1 | inconclusive: 25.1 µM [inhibitor, full curve, poor fit] | 
CC(Oc1ccccc1)C(=O)Nc1ccc(S(=O)(=O)N2CCN(C)CC2)cc1 (stereo not given) |  | inactive: 0.985%
COC(=O)c1ccccc1NC(=O)COC(=O)c1cccnc1 |  | inactive: 21.6%
COc1cc(Cl)c(C)cc1NC(=O)c1cc(S(=O)(=O)N(C)C)ccc1N1CCCC1 |  | inactive: -8.8%
Cc1nc(N2CCOCC2)c2c(C(=O)NCc3cccc(Cl)c3)c(C)oc2n1 |  | inactive: 34.2%
CC1(c2ccc(Cl)cc2Cl)OCC(Cn2ccnc2)O1 (stereo not given) | inconclusive: 35.5 µM [inhibitor, full curve] | 
O=C1c2[nH]nc(-c3ccccc3O)c2C(c2ccccc2)N1Cc1ccco1 (stereo not given) | inconclusive: 44.7 µM [inhibitor, partial curve, poor fit] | 
COc1ccc(C(=O)N/N=C/c2cc(Br)ccc2O)cc1OC | inconclusive: 89.1 µM [inhibitor, single point] | 
Cc1ccccc1NC(=O)CN1C(=O)N/C(=C\c2cccn2-c2cccc(C(=O)O)c2)C1=O | inconclusive: 56.2 µM [inhibitor, partial curve, poor fit] | 
Cn1c(C(=O)NCCCN2CCN(c3ccc(F)cc3)CC2)cc2c(=O)n(C)c3ccccc3c21 |  | inactive: 37.4%
COc1ccc(OC)c(N/C(C)=C/C(=O)c2ccc(Br)cc2)c1 | inconclusive: 50.1 µM [inhibitor, partial curve] | 
COc1ccccc1OCCOCCN1CCCC1 | inconclusive: 15.8 µM [inhibitor, full curve, poor fit] | 
O=C(c1ccc(S(=O)(=O)c2cccc(Cl)c2)c([N+](=O)[O-])c1)N1CCN(Cc2ccccc2)CC1 | inconclusive: 39.8 µM [inhibitor, partial curve] | 
COc1cccc(OC)c1C(=O)N1CCN(Cc2cccnc2)CC1 | inconclusive: 14.1 µM [inhibitor, full curve, poor fit] | 
CC(C)N(C(=O)[C@H]1C[C@H](CC(=O)NCc2ccco2)C(=O)N2CCc3c([nH]c4ccc(Cl)cc34)[C@]12C)C(C)C | inconclusive: 25.1 µM [inhibitor, single point] | 
C/C=C/C(=O)OCC(=O)Nc1ccc(OC)c(Cl)c1 |  | inactive: 11.5%
O=C(Cn1nnc(-c2ccccc2)n1)NNC(=O)c1ccccc1 | inconclusive: 70.8 µM [inhibitor, partial curve] | 
O=C1c2cccnc2C(=O)N1CO |  | inactive: 5.2%

SMILES | Potency | activity change, negative = inhibition
COc1ccc(CN2CCCC(CO)(Cc3cccc(Cl)c3)C2)cc1OC (stereo not given) |  | inactive: 14.4%
CCc1cccc(C)c1NC(=O)Cn1cc2c(n1)CCCC2 |  | inactive: 33.7%
Cc1cccc(NC(=S)NNc2ncc(C(F)(F)F)cc2Cl)c1 | inconclusive: 25.1 µM [inhibitor, single point] | 
CC(C)(CO)Nc1nc(N2CCCC2)nc(N2CCCC2)n1 | inconclusive: 39.8 µM [inhibitor, single point] | 
CCN1CCC2(CC1)N=C(c1ccc(F)cc1)C(=S)N2C(=O)c1ccc(C)cc1 | inconclusive: 15.8 µM [inhibitor, full curve, poor fit] | 
Cc1ccc(C(C)C)c(OCCCCN2CCNCC2)c1 | inconclusive: 12.6 µM [inhibitor, partial curve, poor fit] | 
C=CCN=c1scc(-c2ccc(F)cc2)n1/N=C/c1ccccn1 | inconclusive: 15.8 µM [inhibitor, full curve] | 
Cc1ccc(Oc2nc(CN3CCOCC3)nc3sc4c(c23)CCC(C)C4)cc1C (stereo not given) | inconclusive: 70.8 µM [inhibitor, partial curve] | 
O=C(COC(=O)c1ccc(S(=O)(=O)N2CCCC2)cc1)Nc1ccc(N2CCOCC2)cc1 | inconclusive: 8.91 µM [inhibitor, partial curve, poor fit] | 
CCN(C(=O)COC(=O)/C=C/c1ccco1)C1CCCCC1 | inconclusive: 79.4 µM [inhibitor, single point] | 
Clc1ccc(-n2cnnn2)cc1 |  | inactive: 23%
Cc1nn(CCCC(=O)NCCc2ccc(Cl)cc2)c(=O)c2c1sc1ccccc12 | active: 31.6 µM | 
O=C(CN1CCN(c2ccc(F)cc2)CC1)N1CCC(Cc2ccccc2)CC1 | inconclusive: 39.8 µM [inhibitor, partial curve] | 
CC(C)OCCOc1ccc2oc(-c3ccco3)cc(=O)c2c1 | inconclusive: 70.8 µM [inhibitor, partial curve] | 
Cc1occc1-c1nnc(SCc2nnc(-c3ccc(Cl)cc3)o2)n1C | inconclusive: 3.16 µM [inhibitor, single point] | 
C=CCn1c(SCC(=O)NCCC2=CCCCC2)nc2ccc(Cl)cc2c1=O | inconclusive: 39.8 µM [inhibitor, single point] | 
CCOC(=O)c1[nH]c(C)c(/C(O)=C2\C(=O)C(=O)N(CCCN(C)C)C2c2cccnc2)c1C (stereo not given) | inconclusive: 28.2 µM [inhibitor, single point] | 
O=C(CN1C(=O)/C(=C/c2cccc(Br)c2)SC1=S)NCCCN1CCOCC1 | inconclusive: 35.5 µM [inhibitor, partial curve] | 
CCOc1ccc(CNC(=O)CCC(=O)n2nc(C)c3ccccc32)cc1 |  | inactive: 3.59%
COc1ccc(C(=O)N2CCCC(CNC(=O)c3ccccc3Cl)C2)o1 (stereo not given) |  | inactive: 32.9%
COc1ccccc1OCCSc1nc2ccc([N+](=O)[O-])cc2s1 | inconclusive: 17.8 µM [inhibitor, partial curve, poor fit] | 
CCc1c(C)c(C#N)c2[nH]c3ccccc3n2c1=S | active: 20 µM | 

SMILES | Potency | activity change, negative = inhibition
CCOc1ccc(CCN2C(=S)N([C@@H](CC(C)C)CN3CCCC3CN3C(=S)NC[C@@H]3CC(C)C)C[C@@H]2CC(C)C)cc1 (stereo not given in full) | inconclusive: 39.8 µM [inhibitor, single point] | 
CCOC(=O)/C(C#N)=C/c1c(N2CCN(c3ccc(OC)cc3)CC2)nc2c(C)cccn2c1=O | inconclusive: 12.6 µM [inhibitor, full curve] | 
Cc1cccc(N2CCN(C(=S)c3ccc(-c4ccccc4[N+](=O)[O-])o3)CC2)c1 | active: 15.8 µM | 
CCOC(=O)N1CCC(NCCNC(=O)c2ccccc2Cl)CC1 | inconclusive: 56.2 µM [inhibitor, partial curve, poor fit] | 
Nc1ccc(-c2c3ccc(=O)cc-3oc3cc(O)ccc23)cc1C(=O)O | inconclusive: 70.8 µM [inhibitor, single point] | 
COc1cccc(NC(=O)CN(C)C(=O)c2ccc(OCC3CCCO3)cc2)c1 (stereo not given) | inconclusive: 89.1 µM [inhibitor, partial curve, poor fit] | 
CCC(C)NC(=O)C(NS(=O)(=O)c1ccc2c(c1)c(=O)n(C)c(=O)n2C)c1ccccc1 (stereo not given) |  | inactive: 20.3%
O=C(CCNC(=O)c1ccccc1)NN=Cc1ccc(Br)o1 | inconclusive: 89.1 µM [inhibitor, single point] | 
CCCOC(=O)c1c(-c2ccc(C)cc2C)csc1NC(=O)C1C2CCC(O2)C1C(=O)O (stereo not given) | inconclusive: 2.82 µM [inhibitor, full curve, poor fit] | 
COc1ccc(C(=O)C[n+]2ccccc2C)cc1 | inconclusive: 7.08 µM [inhibitor, full curve, poor fit] | 
Cc1cccc2cc(CN(Cc3cccs3)C(=S)NCc3ccco3)c(=O)[nH]c12 | inconclusive: 35.5 µM [inhibitor, single point] | 
Oc1ccc(-c2nc(-c3ccc(O)c(O)c3)cs2)cc1 | inconclusive: 39.8 µM [inhibitor, single point] | 
CCOc1ccccc1NC(=O)Cn1nnc(C(=O)NCc2ccc3c(c2)OCO3)c1N |  | inactive: 5.31% [at 57 µM]
COC(=O)C1=C(N)OC2=C(C(=O)CC(C)(C)C2)C1c1ccoc1 (stereo not given) | inconclusive: 7.08 µM [inhibitor, single point] | 
CCOc1ccccc1NC(=S)/C(=C(\[O-])c1ccc2c(c1)OCCO2)[n+]1ccc(CC)cc1 | inconclusive: 15.8 µM [inhibitor, full curve] | 
CC(C)(C)n1cnc2cc(NCc3ccc(Br)cc3)ccc21 | inconclusive: 22.4 µM [inhibitor, full curve] | 
O=[N+]([O-])c1ccc(/C=N/NC(=S)Nc2ccccc2F)o1 | inconclusive: 50.1 µM [inhibitor, partial curve] | 
COc1ccc(N2CCN(CCCNC(=O)c3ccc4nc(N5CCCCC5)sc4c3)CC2)cc1 | inconclusive: 12.6 µM [inhibitor, full curve, poor fit] | 
Cc1ccc(S(=O)(=O)N2CCN(c3ccc([N+](=O)[O-])c(Sc4nncn4C)c3)CC2)cc1 | inconclusive: 39.8 µM [inhibitor, single point] | 
C=CCc1ccccc1OCCNCc1ccccc1 | inconclusive: 44.7 µM [inhibitor, partial curve, poor fit] | 
CCC(C)NC(=O)c1cc(C)no1 (stereo not given) | inconclusive: 39.8 µM [inhibitor, single point] | 

Reference: PubChem BioAssay AID540317 (National Center for Advancing Translational Sciences (NCATS), 2011)
